# Measured values from PMC4336329 (PLoS ONE, 2015).
# Screen size: about 310,000 compounds; about 14,000 (4.5%) showed an effect of 50% or more. Effects have a minus sign here. Some of the results follow.
# Biological target: human ether-à-go-go-related gene (hERG) potassium channel (human, UniProt Q12809)
# Experiment: primary screen, population patch clamp on CHO cells stably expressing hERG
# 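Further: peak tail current of the secondary pulse compared with the same well before compound.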
# Sequence of human ether-à-go-go-related gene (hERG) potassium channel (Q12809 whole entry, looked up): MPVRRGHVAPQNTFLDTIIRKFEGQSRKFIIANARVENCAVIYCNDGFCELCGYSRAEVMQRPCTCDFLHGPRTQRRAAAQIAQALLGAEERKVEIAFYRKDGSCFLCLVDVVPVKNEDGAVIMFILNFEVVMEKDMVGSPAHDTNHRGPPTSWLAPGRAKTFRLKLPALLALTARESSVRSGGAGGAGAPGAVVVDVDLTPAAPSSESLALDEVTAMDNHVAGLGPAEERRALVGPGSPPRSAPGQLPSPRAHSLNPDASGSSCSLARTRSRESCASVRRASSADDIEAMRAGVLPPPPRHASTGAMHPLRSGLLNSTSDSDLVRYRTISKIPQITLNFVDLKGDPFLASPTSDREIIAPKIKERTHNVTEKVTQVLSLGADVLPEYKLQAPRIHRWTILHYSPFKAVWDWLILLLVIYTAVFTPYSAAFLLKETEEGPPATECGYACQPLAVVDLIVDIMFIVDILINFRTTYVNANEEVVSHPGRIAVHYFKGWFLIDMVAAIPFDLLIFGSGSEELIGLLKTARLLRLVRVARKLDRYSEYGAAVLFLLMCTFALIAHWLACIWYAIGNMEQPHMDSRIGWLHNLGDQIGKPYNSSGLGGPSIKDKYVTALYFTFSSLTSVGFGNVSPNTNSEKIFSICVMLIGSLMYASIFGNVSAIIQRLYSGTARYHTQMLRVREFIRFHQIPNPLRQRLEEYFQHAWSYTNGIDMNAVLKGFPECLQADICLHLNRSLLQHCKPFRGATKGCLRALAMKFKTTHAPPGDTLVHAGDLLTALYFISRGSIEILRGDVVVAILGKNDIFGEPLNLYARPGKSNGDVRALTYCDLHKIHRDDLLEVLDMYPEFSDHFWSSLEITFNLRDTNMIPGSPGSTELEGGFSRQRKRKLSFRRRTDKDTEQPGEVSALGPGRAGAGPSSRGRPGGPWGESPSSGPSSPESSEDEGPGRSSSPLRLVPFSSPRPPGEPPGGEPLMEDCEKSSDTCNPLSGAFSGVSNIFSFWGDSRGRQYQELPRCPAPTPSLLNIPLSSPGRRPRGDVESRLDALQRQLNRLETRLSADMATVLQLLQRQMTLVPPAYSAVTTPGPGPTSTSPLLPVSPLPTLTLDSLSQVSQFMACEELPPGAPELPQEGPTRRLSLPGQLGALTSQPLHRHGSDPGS
row,SMILES,"hERG current change (%, negative = inhibition) at 10uM"
1,COc1ccc(-n2nc(C)cc2Nc2ccccc2C(=O)O)cc1,13.6%
2,CCCOc1ccccc1C(=O)N(Cc1ccco1)C1CCS(=O)(=O)C1 (stereo not shown),-0.904%
3,CC(=O)Nc1ccccc1OC(C)C(=O)NC(C)c1ccc(F)cc1 (stereo not shown),3.19%
4,O=C(N/C(=C\c1ccco1)C(=O)N1CCOCC1)c1ccc([N+](=O)[O-])cc1,-70.8%
5,Cl.c1ccc2c(c1)c1c3n2CCNC3CCC1 (stereo not shown),-6.36%
6,C=CCn1c(SCC(=O)N2CCc3ccccc3C2)nnc1-c1ccncc1,-15.6%
7,COc1ccc(CC(=O)OC(C)CN2CCCC2)cc1.Cl (stereo not shown),6.46%
8,Cc1cc(O)c(-c2cc(C(=O)NCc3ccc4c(c3)OCO4)[nH]n2)cc1C,-1.08%
9,C=CCOn1c(C)c(C(C)=O)c2c3no[n+]([O-])c3ccc21,-14.5%
10,Nc1ccc(S(=O)(=O)N2CC3CC(C2)c2cccc(=O)n2C3)cc1 (stereo not shown),1.73%
11,C=CCn1c(O)c(C(C)=NCCCO)c(=O)[nH]c1=O,3.31%
12,CCC(C(=O)NC(C)(C)C)N(C(=O)Cn1nnc(-c2ccccc2F)n1)c1cccc2c1CCCC2 (stereo not shown),-2.91%
13,COc1ccc(OC)c(NC(=O)CN2C(=O)c3ccccc3S2(=O)=O)c1,2.94%
14,Br.Cc1cc(C)nc(SCc2csc(-c3ccccc3)n2)n1,-4.42%
15,CCC(CC)C(=O)Nc1c2c(nn1-c1ccc(C)cc1)CS(=O)(=O)C2,5.3%
16,CC(C)C[C@@H](CSc1ccccc1)N1CCN(CC(C)C)CCC1=O,-75%
17,CCOC(=O)N1CCC(N2CCCC(C(=O)c3cccc(OC)c3)C2)CC1 (stereo not shown),-64.8%
18,Cc1nc(SCC(=O)Nc2ccc(F)cc2)c2oc3ccccc3c2n1,13.5%
19,Cc1ccc(C)c(NC(=S)NNC(=O)c2cc3c(s2)CCC(C)C3)c1 (stereo not shown),16.6%
20,CCC1CCCCN1CCCNC(=O)Cn1ncc2c([nH]c3ccc(C)cc32)c1=O (stereo not shown),-6.66%
21,CC(C)(CNC(=O)c1ccc(S(=O)(=O)Nc2ccccc2F)cc1)N1CCOCC1,1.67%
22,CCCCn1c(N)c(N(CCOC)C(=O)c2ccc3c(c2)C(=O)N(c2cc(C)ccc2C)C3=O)c(=O)[nH]c1=O,-9.32%

row,SMILES,"hERG current change (%, negative = inhibition) at 10uM"
1,COc1ccccc1NC(=O)C(C)OC(=O)CCNS(=O)(=O)c1ccc(C)c(C)c1 (stereo not shown),-18.7%
2,Cc1ccc(/C=C(\NC(=O)c2ccccc2)C(=O)N2CCCCC2)cc1,-12%
3,Cc1cc2oc(=O)cc(CN3CCOCC3)c2cc1C,-5.87%
4,CCN(CC)S(=O)(=O)c1ccc(C(=O)Nn2cnnc2)cc1,14.4%
5,O=C1CC(c2ccc(O)c(O)c2)Oc2cc(O)cc(O)c21 (stereo not shown),3.64%
6,C/C(=N\NC(=O)c1nnn(-c2nonc2N)c1-c1ccc2c(c1)OCO2)c1ccc(F)cc1,23%
7,CCN(CC)c1ccc(NC(=O)CN2C(=O)CSc3ncccc32)c(C)c1,-5.51%
8,Cc1ccc(Nc2nc(-c3sc(C)nc3C)cs2)cc1,14%
9,O=C(Cc1c(F)cccc1Cl)N1CCCC1,16.2%
10,O=C(c1ccccc1)c1ccc2nc[nH]c2c1,0.168%
11,O=C(Nc1ccc(N2CCN(C(=O)c3ccc(Cl)cc3)CC2)cc1)c1cc2ccccc2o1,-0.396%
12,CC(=O)Nc1ccc(-c2ccc3nnc(C)n3n2)cc1,6.66%
13,O=C(NC1CCCCC1)[C@H](CSCc1ccccc1)N1Cc2ccccc2C1=O,-44.6%
14,COCCNC(=O)CN(c1ccccc1OC)S(C)(=O)=O,6.15%
15,CCCCCCn1c(O)c(C=NC2CCCCC2N)c(=O)[nH]c1=O (stereo not shown),1.62%
16,c1ccc2c(c1)ncn2-c1ccc(-c2ccnc(-c3ccncc3)n2)cc1,-17.5%
17,S=c1[nH]nc(-c2ccc3ccccc3n2)n1-c1cc(Cl)cc(Cl)c1,8.25%
18,CCOC(=O)c1c(NC(=O)CN2CCCc3ccccc32)sc(C)c1C,9.19%
19,O=C(Cc1ccc(S(=O)(=O)N2CCOCC2)s1)Nc1nc2c(s1)CCCC2,1.37%
20,COc1ccc(-c2nnc(-c3ccccc3O)o2)cc1,17%
21,CCC1=NN(C(=O)Cc2ccccc2)C(O)(c2ccncc2)C1 (stereo not shown),28.9%
